In all, about 150,000 compounds went through this assay and about 540 (0.36%) showed an effect of 50% or more. This is one part of the list.
tested on: Plasmodium falciparum; experiment: Primary screen in NF54 nanoGlo assay, in single point, at 2uM, 72h; a lower Z score goes with more inhibition; format: functional, Erythrocyte; conditions: timepoint 72 hour

Row | Structure (SMILES) | % Inhibition [%] | Z score
1 | CNC(=O)Cc1nc(CN2CCNC(=O)[C@@H]2c2ccc(F)cc2C)cs1 | -11 | 2.04
2 | O=S1(=O)CC[C@H](Cc2nc(C3CC3)n[nH]2)C1 | -17 | 2.1
3 | O=C(Nc1ccccc1C1CC1)N[C@@H]1CCNC1 | 10 | -1.93
4 | Cc1cc(-c2ccccc2)nc(Oc2cccc(C(F)(F)F)c2)c1S(=O)(=O)c1ccc(Cl)cc1 | -8 | 1.21
5 | CCc1nc(C)c(CN2CC[C@H](CC(F)(F)F)C2)o1 | 1 | -0.06
6 | CCn1cc(CCN2CCN(S(=O)(=O)c3cccs3)CC2)c2cccnc21 | -8 | 0.91
7 | Cc1ccc(S(=O)(=O)N2CC(n3nccn3)C2)cc1Cl | -7 | 0.81
8 | Cc1nc(CC(C)C)cc(C(=O)N(C)Cc2cc(C(C)C)no2)n1 | -5 | 0.93
9 | CCc1nnc(Cn2cc(CN3C[C@@H](C)O[C@@H](C)C3)nn2)o1 | 10 | -1.71
10 | CCOc1ccccc1CNc1ccc2nccnc2c1 | 1 | -0.09
11 | Clc1ccc(-c2nnc(-c3ccccc3)nc2N2CCOCC2)cc1 | -13 | 1.47
12 | O=S(=O)(CCC(F)(F)F)N1CCC[C@H](Cc2nc(C3CC3)no2)C1 | 5 | -0.72
13 | Cn1c(NC(=O)CC2=CCCCC2)nnc1C1CC1 | 9 | -1
14 | CC1NC(=O)C(C)N(Cc2cnc3ccccc3c2)C1C (stereo unspecified) | 0 | -0.06
15 | CN(CCC(=O)NCc1cccc(Cl)c1)C[C@H]1COCCO1 | -8 | 1.03
16 | CCc1nc(-c2cccc(NC(=O)c3ccccc3)c2)no1 | -24 | 4.14
17 | CO[C@@H](C)c1nc(COc2ccc(C(C)(C)C)cc2)n[nH]1 | -20 | 2.29
18 | O=C(c1cnn(-c2ccccc2)c1)N1CCC[C@H]1c1nnc2ccccn12 | 19 | -2.42
19 | CC(Oc1ccccc1)C(=O)Nc1cccc(NC(=O)C(C)Oc2ccccc2)n1 (stereo unspecified) | -9 | 1.22
20 | COc1cn(CC(=O)NC(C)C)c(CN2CCCCC2)cc1=O | -1 | 0.24
21 | O=C(Cn1nnnc1CN1CCCCCC1)N[C@@H]1COC2(CCCC2)C1 | 5 | -0.62

Row | Structure (SMILES) | % Inhibition [%] | Z score
22 | O=C(NC[C@H](O)c1ccc2c(c1)CCO2)c1ccco1 | 12 | -1.51
23 | O=C(c1ccccc1-c1ccccc1)N1CCN(S(=O)(=O)[C@H]2CCS(=O)(=O)C2)CC1 | 5 | -0.7
24 | C[C@@H](CN(C)c1cnccn1)N1CCOCC1 | 2 | -0.37
25 | Cc1c(N[C@@H](C)C(C)C)cccc1C(=O)N(C)CC#N | -5 | 0.63
26 | C[C@H](C(=O)NCc1ccccc1F)C1CCN(C(=O)c2cc3ccccc3[nH]2)CC1 | -3 | 0.6
27 | COc1cccc(-c2cc(C(=O)O)cc(S(=O)(=O)N3CCCCCC3)c2)c1OC | -6 | 0.79
28 | O=C(NC[C@H]1CCCCN1S(=O)(=O)c1cc(F)ccc1F)Nc1ccccc1 | -4 | 0.43
29 | O=S(=O)(NC[C@H]1COCc2nc3ccccc3n21)c1ccccc1 | -10 | 1.94
30 | C[C@@H](c1nc(C(C)(C)C)no1)N1CCCC1 | -9 | 1.77
31 | C[C@@H](c1nc2ccccc2c(=O)[nH]1)N1CCN(C(=O)c2ccco2)CC1 | -2 | 0.35
32 | NC(=O)CC1CCN(CC(=O)NC2CCCCCC2)CC1 | -7 | 1.13
33 | O=C(NCCN1CCOCC1)[C@H]1CC(=O)N(c2n[nH]c3ccccc23)C1 | -3 | 0.43
34 | Cc1cccc(CN2CCCn3cccc3[C@H]2c2cccc(Oc3ccccc3)c2)c1 | -25 | 2.44
35 | O=C(N[C@H]1CCCCNC1=O)c1coc(COc2ccccc2)n1 | 1 | -0.12
36 | Cc1cc(C)n(Cc2c(C(=O)NCc3ccc(C)o3)noc2C)n1 | -16 | 1.6
37 | c1ccc2[nH]c(C3CCN(c4ncnc5nc[nH]c45)CC3)nc2c1 | 3 | -0.48
38 | COc1cc(C(=O)Nc2cc(C)cc(-n3nc4ccccc4n3)c2OC)cc(OC)c1OC | 32 | -3.57
39 | O=C(CN1CCCCC1=O)NCCCOC1CCCC1 | 5 | -1.03
40 | Cc1cccc(C(NC(=O)[C@H](C)c2ccccc2)C(=O)O)c1C (stereo partly specified) | -10 | 1.25
41 | O=C(O)C1(n2cccn2)CCN(Cc2ccc3occc3c2)CC1 | -7 | 1.09
42 | N#Cc1c(C(F)(F)F)cc(O)n2c1nc1ccccc12 | 10 | -1.32

Row | Structure (SMILES) | % Inhibition [%] | Z score
43 | c1cnc(NCc2cn3c(n2)CCCC3)cn1 | -1 | 0.17
44 | CCc1oc(C(=O)O)cc1CN1C[C@@H]2[C@@H]3CC[C@@H](C3)[C@]2(C)C1 | 2 | -0.33
45 | CCn1c(-c2ccccc2F)nc2cc(C(=O)NCc3cn4cc(C)sc4n3)cc(NC(C)=O)c21 | -11 | 1.5
46 | CC[C@H](NS(=O)(=O)CC(C)C)c1cc(C)ccn1 | 7 | -0.96
47 | COC(=O)CCN1C[C@H](OCc2cccc(OC)c2)CN(C(=O)c2ccc(F)cc2Cl)CC1=O | -2 | 0.31
48 | COc1ccc(CNc2nc3c(c(C(F)(F)F)n2)CCCCC3)cc1 | -11 | 1.07
49 | Cc1cc(N(Cc2cccnc2)Cc2ccco2)ncn1 | 1 | -0.15
50 | CC(C)N(CCOCCO)C(=O)Nc1cc(F)c(F)c(F)c1 | -12 | 1.99
51 | CNC(=O)[C@@]1(C(F)(F)F)CCN(C(=O)c2cc(OC)no2)C1 | -2 | 0.23
52 | COc1ccccc1Cn1ncc2[nH]c(-c3ccccc3OC(F)F)nc21 | -2 | 0.33
53 | CCC[C@H]1CC[C@H](C(=O)NCc2cc3n(n2)CCN(S(C)(=O)=O)C3)CC1 | -11 | 1.09
54 | CC(=O)Nc1ccc2[nH]c(C)c([C@H](Nc3ccccn3)c3ccccn3)c2c1 | -3 | 0.52
55 | O=C(NCC[C@H](O)c1ccccc1)C(=O)Nc1ccon1 | -3 | 0.45
56 | Clc1ccc(CN2CCC[C@H](C3OCCO3)C2)cc1 | 6 | -0.85
57 | O=S(=O)(c1cccnc1)N(Cc1ccc(Br)cc1)C1CC1 | -8 | 1.46
58 | COc1cccc(NC(=O)C2[C@H]3C=C[C@@]4(O3)C(C(=O)NC3CCCCC3C)N(C3CCC(C)CC3)C(=O)[C@@H]24)c1 (stereo partly specified) | 5 | -0.76
59 | Cc1ccc(CCC(=O)N2CCC3(CCC(=O)N(CC(N)=O)C3)CC2)cc1 | 2 | -0.25
60 | Cc1cc(C(=O)N[C@@H](C)C2CC2)c(C)n1Cc1ccncc1 | 5 | -0.62
61 | CCOC(=O)CNC(=O)c1cc(C)nc2onc(-c3ccccc3F)c12 | 34 | -3.85
62 | CCn1ccnc1CN(C)C(=O)NCc1csc(N2CCOCC2)n1 | -8 | 1.39
63 | Cc1ccc([C@H]2c3cc(OCC(=O)NCCN(C)C)ccc3CCN2C(=O)C2CCCC2)cc1 | -2 | 0.22

Row | Structure (SMILES) | % Inhibition [%] | Z score
64 | Cc1oc(C)c(C(=O)N2CCN(c3cnccn3)CC2)c1C | 5 | -0.97
65 | Cc1cccc(NC(=O)c2cnn3c(=O)c4c(n(C)c23)CCNC4)c1 | -1 | 0.09
66 | O=C(c1ccncc1)N1CCc2cc(S(=O)(=O)N3CCCC3)ccc21 | 3 | -0.31
67 | COc1cccc(COc2cccc(NCc3noc(C4CC4)n3)c2C)c1 | -13 | 1.85
68 | CC(C)CN1CCN(Cc2ccn(C(C)C)n2)CC1=O | -8 | 0.98
69 | COc1ccc(NC(=O)c2ccccc2NC(=O)CN(C)C2CCN(C)CC2)cc1 | -6 | 0.96
70 | CC(=O)N(c1nc(CN(Cc2ccccc2)C(C)C)cs1)C1CC1 | -7 | 0.95
71 | Cc1cccc(CC(=O)N2CCC([C@]3(CCc4ccccc4)NC(=O)N(CCN(C)C)C3=O)CC2)c1 | -12 | 2.19
72 | CCC(CC)(CC)NCC(=O)Nc1ccc(Br)cn1 | -4 | 0.63
73 | O=C(Nc1cccs1)Nc1nc2c(s1)C(=O)NCCC2 | -5 | 0.88
74 | CCCn1nccc1C(=O)N(C)Cc1csc(-c2ccccc2)n1 | 3 | -0.72
75 | COCCOc1cc2cc(c1)C(=O)NCCNC(=O)N[C@H]1CCN(C(=O)c3ccc(C)c(C)c3)C[C@@H]1OCc1cccc(c1)O2 | -1 | 0.07
76 | CC(C)OC(=O)c1ccccc1S(=O)(=O)Oc1ccc(CN(C(=O)c2ccccc2F)C(C)C)cc1 | -9 | 1.38
77 | O=C(c1cnc(-c2cccnc2)nc1)N1CCOC[C@@H](CO)C1 | -14 | 1.72
78 | Fc1cccnc1OC1CCN(c2nnc(-c3ccco3)n2C[C@H]2CCCCO2)CC1 | -18 | 2.1
79 | Cc1nonc1OCCN[C@@H](C)C(=O)NC1CCCC1 | -13 | 1.3
80 | Cn1cc(CNC(=O)N(Cc2ccoc2)C2CC2)nn1 | 9 | -1.03
81 | Cc1n[nH]c(C)c1CN(C)C(=O)c1c(CCc2ccccc2)n(Cc2ccncc2)c(C)cc1=O | -6 | 0.95
82 | Cn1nccc1S(=O)(=O)N[C@H]1CCN(c2ccc(Cl)cc2)C1 | -12 | 2.26
83 | O=S(=O)(Nc1ccc(-c2cc3cc(Cl)ccc3[nH]2)cc1)c1cccc(F)c1 | -10 | 0.86

Source: ChEMBL document CHEMBL4888484, “Replenishing the malaria drug discovery pipeline: Screening and hit evaluation of the MMV Hit Generation Library 1 (HGL1) against asexual blood stage Plasmodium falciparum ,using a nano luciferase reporter read-out” (2022)
